Results: PubChem BioAssay AID493208 (National Center for Advancing Translational Sciences (NCATS), 2011)
Screen size: about 44,000 compounds; about 340 (0.77%) were called active. About 5% were inconclusive and are not listed. Calls come from the whole dose curve; as a rule, active = well fitted inhibition curve with a large enough effect; inconclusive = small, poorly fitted or top-dose-only effect; inactive = flat fitted curve, though single readings scatter. Some of the results follow.

experiment: Acumen qHTS Assay for Inhibitors of the mTORC1 Signaling Pathway in MEF (Tsc2-/-, p53-/-) Cells: Sytravon; settings: phospho-rpS6 immunofluorescence/PI, 24 h; series mostly up to 38.3 µM; activity change, negative = inhibition: at the top concentration;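 note: plate controls were DMSO for no effect and rapamycin for full effect; nearly all actives have a fitted effect of over 50% in size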
Outline: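 Immunofluorescence of rpS6 phosphorylation in Tsc2-/-, p53-/- MEFs after 24 h compound exposure, normalized to propidium iodide signal. Activity is expressed as % positive cells, thresholded with 7.5 nM rapamycin.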

Activity change, negative = inhibition, inactive:
O=c1c(S(=O)(=O)c2ccccc2)cn(Cc2cccc(F)c2)c2cc(N3CCOCC3)c(F)cc12 0.486%
COc1ccc(OC(=O)c2nc(SCc3ccc(F)cc3)ncc2Cl)cc1 2.49%
Cc1ccc(C2=NN(CC(=O)NCCC(C)C)C(=O)CC2)cc1 -14%
COc1cccc(-c2nnc(-c3ccccc3NC(=O)c3cccc(C(F)(F)F)c3)o2)c1 0.327%
CCOC(=O)c1cc(OC(=O)c2ccc(C)cc2)n(-c2ccccc2)n1 -17.1%
CCOc1ccc(NC(=O)c2cnn3c2NC(c2cccc(OC)c2)=CC3c2ccccc2)cc1 (stereo not drawn) -7.62%
COc1ccc(NC(=O)c2ccco2)cc1NC(=O)COc1ccccc1 -5.88%
Cc1ccc(C(=O)Nc2nnc(S(=O)(=O)N3c4ccccc4CC3C)s2)cc1 (stereo not drawn) 0.712%
Cn1c(=O)n(C)c2cc(N3CCOCC3)c(NC(=O)c3ccccc3Br)cc21 -8.62%
COc1ccc(CNC(=O)CN2C(=O)CSc3ccc(S(=O)(=O)N4CCOCC4)cc32)c(OC)c1 -3.99%
COc1cccc(CNC(=O)c2cc(S(=O)(=O)N3CCCCC3)cn2C)c1 -11.7%
CC(=O)Nc1ccc(NC(=O)CSc2nc3ccccc3nc2N2CCC(C)CC2)cc1 -1.4%
COc1ccc(NC(=O)C(Cc2ccccc2)n2cccc2)cc1OC (stereo not drawn) -8.29%
COc1cc(-c2noc(CCC(=O)Nc3cc(C)ccc3C)n2)cc(OC)c1OC 2.52%
Cc1ccccc1Cn1c2ccccc2c2cnn(CC(=O)NCCc3ccccc3)c(=O)c21 -15.2%
COc1ccc(NC(=O)CCS(=O)(=O)c2ccc3nc(C)sc3c2)cc1Cl -4.11%
Cc1ccc(-n2ncc(C(=O)NCCc3c[nH]c4ccccc34)c2C2CCN(C(=O)OC(C)(C)C)CC2)cc1C -0.291%
Cc1ccc(OC(=O)CSc2nnc(-c3cccs3)o2)cc1 4.6%
CCn1c(=O)c2sccc2n2c(CCC(=O)N3CCN(c4ccc(C(C)=O)cc4)CC3)nnc12 -11.1%
Cc1ccccc1C(=O)N(Cc1nc(-c2ccc(Cl)cc2)no1)C(C)C 3.42%
CNC(=O)c1c(NC(=O)/C=C/c2ccccc2Cl)sc2c1CCC2 8.07%
O=C(Cn1c(-c2cccs2)cc2cc(Cl)ccc21)N1CCN(c2ccccc2F)CC1 -14%
CC(NC(=O)CN(c1ccc(Cl)cc1Cl)S(=O)(=O)c1ccccc1)c1ccccc1 (stereo not drawn) -1.51%
CCC(=O)Nc1ccc(CC)cc1-c1nc2ccccc2n(Cc2ccccc2)c1=O 1.2%
COc1ccc(C(=O)c2oc3ccccc3c2NC(=O)COc2cccc(C)c2C)cc1 -2.61%
CC1CCC(NC(=O)c2cc3c(Cl)nc4ccccc4c3s2)CC1 (stereo not drawn) 0.491%
O=C(Cn1ccc2cc(S(=O)(=O)N3CCCCC3)ccc21)NCc1cccc(Cl)c1 -6.14%
CCOc1ccccc1NC(=O)Cn1c(=O)n(Cc2ccccc2)c(=O)c2cccnc21 -1.87%
COc1ccc(F)cc1S(=O)(=O)Nc1cccc(-c2ccc(N3CCCCCC3)nn2)c1 8.88%
CC(=O)Nc1ccccc1-c1nc2ccccc2n(Cc2cccc(Br)c2)c1=O -6.44%
Cc1cc(C)c(NC(=O)Cn2nnc(-c3ccccc3)n2)c(C)c1 -0.822%
Cc1cc(S(=O)(=O)NCC(c2ccco2)S(=O)(=O)c2ccccc2)ccc1F (stereo not drawn) -4.3%
CCOC(=O)C(C)NC(=O)C1CCN(c2ncnc3c2nc2n3CCCCC2)CC1 (stereo not drawn) -5.51%
O=C(CN1CCCN(Cc2ccccc2Cl)S1(=O)=O)NCc1ccccc1 -3.79%
Cc1cccn2c(=O)cc(COc3cccc(NC(=O)COc4ccc(F)cc4)c3)nc12 12.5%
CCc1nnc(NC(=O)C(=O)c2cc(C)n(-c3ccccc3)c2C)s1 0%
CC(C)N(Cc1ccccc1)C(=O)Cn1ncc2c([nH]c3ccccc32)c1=O -0.174%
O=C(CSc1nc2c([nH]c3ccccc32)c(=O)n1-c1ccc(Cl)cc1)N1CCOCC1 2.76%
CCC1CCCCN1CC(=O)Nc1cc(C)c2c(=O)oc3ccccc3c2n1 (stereo not drawn) -22.6%
Cc1ccc(NC(=O)N2CCC(c3ccccc3)C2)cc1C (stereo not drawn) -7.92%
Cc1ccc(-c2nonc2NC(=O)c2ccc(F)cc2)cc1C 0.335%
Cc1cccc(NC(=O)CSc2c(C)cnc3c2c(=O)n(C)c(=O)n3C)c1C -0.174%
O=S(=O)(NCC(c1ccco1)N1CCOCC1)c1cc(F)ccc1F (stereo not drawn) 0.534%
CCc1nn(C(CC)C(=O)NCc2ccc(F)cc2)c(=O)c2cc3occc3n12 (stereo not drawn) 1.63%
COc1cc(C(=O)NCC(c2ccco2)S(=O)(=O)c2ccccc2)cc(OC)c1OC (stereo not drawn) 3.92%
O=C(CCc1ccccc1)N(Cc1cccnc1)c1nc2c(F)cccc2s1 -4.98%
CCCOc1ccc(C(=O)N(Cc2ccc(N(C)C)cc2)CC2CCCO2)cc1 (stereo not drawn) -0.435%
CC1=C(C(=O)Nc2ccccc2)C(CC(C)C)n2nc(SCc3ccccc3C)nc2N1 (stereo not drawn) -1.61%
O=C(c1cc2c(s1)-c1ccccc1OC2)N1CCN(c2ccccc2)CC1 -1.07%
Cc1ccc(C(=O)Nc2ccc(OCc3cc(=O)n4c(C)csc4n3)cc2)cc1 1.77%
CCCN(CCC)CCCNC(=O)Cn1ncc2c3ccccc3n(Cc3ccccc3)c2c1=O 1.69%
Cc1ccc(NC(=O)Cc2csc(C)n2)c(C)c1 2.75%
Cc1cccc(NC(=O)CSc2nncn2C)c1 3.57%
Cc1ccc(Nc2c(-c3ccc(O)cc3)nc3cccc(C)n23)cc1 5.68%
Cc1nc(-c2ccc(Cl)cc2)sc1CCNC(=O)c1cccs1 -0.711%
CCCOc1ccc(-c2nc(SC)[nH]c(=O)c2C#N)cc1OC -4.15%
CCN(CC)CCN(C(=O)c1ccco1)c1nc2ccc(Br)cc2s1 -0.736%
CC(=O)Nc1nonc1-c1nnc(SCC(=O)Nc2cc(C)cc(C)c2)n1-c1ccccc1 0.0268%
Cc1ccc(S(=O)(=O)c2c(Nc3cc(F)ccc3F)sc(C(=O)c3ccc(F)cc3)c2N)cc1 -9.4%
O=C(c1ccc2c(c1)N(Cc1ccccc1)C(=O)c1ccccc1S2(=O)=O)N1CCCCCC1 0.984%
CC(C)(C)c1ccc(Oc2nc3ccccn3c(=O)c2/C=C(\C#N)c2nc3ccccc3s2)cc1 -20.2%
CCc1ccc(NC(=O)CC2C(=O)N(c3ccc(C)cc3)C(=O)N2C2CCCC2)cc1 (stereo not drawn) -7.27%
COc1ccc2c(c1)CCc1sc(NC(=O)c3ccc(Br)cc3)nc1-2 4.62%
